Molecular target: GST-tag DNA polymerase β, full-length (1–335 amino acids) (UniProt P06746)
Assay: SPR; Biacore X-100, 25 °C; GST-tag polβ or APE1 immobilised on CM5 chip (EDC/NHS, 10 mM sodium acetate pH 4.0), his-tag LIG1 or LIGIIIα proteins as analytes; 10 mM Hepes pH 7.4, 150 mM NaCl, 3 mM EDTA, 0.005% P20; 1:1 (Langmuir) model; polβ truncated mutants (Fig. S2) tested likewise, orientation not given

Kd: 142 nM
Substance: DNA ligase 1 full-length ([…] amino acids) (a stretch of the chain, chain not printed) (enzyme; other documents disagree on this pair)

Source: article PMC11176775
